Inconclusive means that the source gave no clear call. Such entries were picked first, then a sample of the others. Potencies beside an inconclusive call are fits to weak or partial responses and may not hold up. The source made the active and inactive calls. Calls follow the shape of the dose curve; as a rule, active = well fitted curve in the direction sought with a large enough effect; inconclusive = small, poorly fitted or top-dose-only effect, or another doubt; inactive = no such curve, though single readings can be large; an effect the other way counts as inactive or inconclusive.
test: BET inhibitor-based combinations targeting novel dependencies in MECOM-rearranged (r) AML: UCSD-AML1 cell line (AID 2202235); details: UCSD-AML1 AML cells viability, CellTiter-Glo, 48 h; viability (% of control): at 46 µM (top of the series); also: nearly all actives have a fitted effect of over 40% in size;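 as to viability (% of control): plate controls were DMSO vehicle wells for no effect and blank wells for full effect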
In short: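 First, 500 cells per well were seeded; next, drugs were pinned as 11-point doses; then plates sat 48 hr in the incubator; finally CellTiter-Glo was added and luminescence read, with AUC and Z-AUC computed.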
Potency is read from the fitted curve at half-maximal effect; tags tell the direction and shape of the fitted curve.

SMILES	Potency	viability (% of control)
CCCCC[C@H](O)/C=C/[C@H]1[C@H](O)CC(=O)[C@@H]1CCCCCCC(=O)O	active: 11.8 µM	
COC(=O)[C@H](c1ccccc1Cl)N1CCc2sccc2C1		inactive: 109%
CCC(C)CNCC(=O)N1CCc2sccc2C1c1cccc(C)n1 (stereo not drawn)		inactive: 112%
COc1cc(NC(=O)c2ccc(-c3ccc(Cl)cc3)o2)cc(OC)c1	inconclusive: 33.2 µM [inhibitor, single point]	
O=C(Nc1cccc(C(F)(F)F)c1)c1cccc2cc(Oc3cc(CO)ncn3)ccc12		inactive: 108%
COc1c(N2C[C@@H]3CCCN[C@H]3C2)c(F)cc2c(=O)c(C(=O)O)cn(C3CC3)c12	inconclusive: 16.6 µM [inhibitor, partial curve, poor fit]	
CCOC(=O)c1ccnc(CNCC(=O)N(CC)CCN(C)C)c1		inactive: 106%
Cc1ccc(/C=N/NC(=O)c2ccccc2Oc2ccccc2)o1	inconclusive: 118 µM [inhibitor, partial curve, poor fit]	
C#Cc1cccc(Nc2ncnc3cc4c(cc23)OCCOCCOCCO4)c1	inconclusive: 33.2 µM [inhibitor, single point]	
CC(=O)CC(c1ccccc1)c1c(O)c2ccccc2oc1=O (stereo not drawn)		inactive: 103%
CC1=C(c2ccc(O)cc2)[C@H](c2ccc(OCCN3CCCCC3)cc2)Oc2cc(O)ccc21	inconclusive: 2.09 µM [inhibitor, partial curve, poor fit]	
Cn1c(NCCN(CCO)CCCc2ccc([N+](=O)[O-])cc2)cc(=O)n(C)c1=O		inactive: 108%
CCCNC(=O)c1cn2ncnc(Nc3cc(C(=O)NC4CC4)ccc3C)c2c1C	inconclusive: 37.2 µM [inhibitor, single point]	
O=C(O)Cn1nnc(-c2cc(N3CCC(Oc4cc(F)ccc4Br)CC3)no2)n1	inconclusive: 33.2 µM [inhibitor, single point]	
CN(C)c1cc(NC(=O)CNC(C)(C)C)c(O)c2c1C[C@H]1C[C@H]3[C@H](N(C)C)C(=O)C(C(N)=O)=C(O)[C@]3(O)C(=O)C1=C2O	active: 4.68 µM	
O=C(O)c1ccccc1-c1ccc(/C=c2\sc3nc4cc(Br)cnc4n3c2=O)o1		inactive: 106% [at 15.6 µM]
CN1CCC(=C2c3ccccc3CC(=O)c3sccc32)CC1		inactive: 101%
CCC[C@H](NC(=O)[C@@H]1[C@H]2CCC[C@H]2CN1C(=O)[C@@H](NC(=O)[C@@H](NC(=O)c1cnccn1)C1CCCCC1)C(C)(C)C)C(=O)C(=O)NC1CC1	inconclusive: 0.59 µM [inhibitor, full curve]	
CC(C)Cc1ccc([C@@H](C)C(=O)NS(C)(=O)=O)cc1	inconclusive: 29.5 µM [inhibitor, single point]	

test: BET inhibitor-based combinations targeting novel dependencies in MECOM-rearranged (r) AML: AML-191 cell line (AID 2202236; also: nearly all actives have a fitted effect of over 35% in size;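 as to viability (% of control): plate controls were vehicle wells for no effect and wells without cells for full effect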); details: AML-191 viability, CellTiter-Glo luminescence, 48 h; series mostly up to 46 µM; viability (% of control): at the top concentration
In short: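 Each compound was tested at eleven concentrations on cells seeded at 500/well. After two days' incubation, ATP-based luminescence reported viability; responses relative to DMSO and blank wells yielded AUC and cell-line-centred Z-AUC.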

SMILES	viability (% of control)	Potency
COc1cc(NC(=O)c2ccc(-c3ccc(Cl)cc3)o2)cc(OC)c1	inactive: 102%	
O=C(Nc1cccc(C(F)(F)F)c1)c1cccc2cc(Oc3cc(CO)ncn3)ccc12	inactive: 99.7%	
CCOC(=O)c1ccnc(CNCC(=O)N(CC)CCN(C)C)c1	inactive: 97.1%	
CC1=C(c2ccc(O)cc2)[C@H](c2ccc(OCCN3CCCCC3)cc2)Oc2cc(O)ccc21		inconclusive: 26.3 µM [inhibitor, single point]
Cn1c(NCCN(CCO)CCCc2ccc([N+](=O)[O-])cc2)cc(=O)n(C)c1=O	inactive: 115%	
CCCNC(=O)c1cn2ncnc(Nc3cc(C(=O)NC4CC4)ccc3C)c2c1C	inactive: 107%	
CN1CCC(=C2c3ccccc3CC(=O)c3sccc32)CC1	inactive: 93.3%	
CCC[C@H](NC(=O)[C@@H]1[C@H]2CCC[C@H]2CN1C(=O)[C@@H](NC(=O)[C@@H](NC(=O)c1cnccn1)C1CCCCC1)C(C)(C)C)C(=O)C(=O)NC1CC1		inconclusive: 66.1 µM [inhibitor, partial curve, poor fit]
CC(C)Cc1ccc([C@@H](C)C(=O)NS(C)(=O)=O)cc1	inactive: 104%	

— PubChem BioAssay (NCATS)
